From patent EP4603105A1, “PHARMACEUTICAL COMPOSITION CONTAINING CYCLIC COMPOUND HAVING SELECTIVE KRAS INHIBITORY EFFECT AGAINST HRAS AND NRAS” (CHUGAI SEIYAKU KABUSHIKI KAISHA, priority 2022, dated 2024)
At least one peptide structure holds a part that was inferred or is arguable (an end, a ring closure or a residue). *1 amine or outer side, *2 acyl side, *3 side chain or, on linkers, in order; H or OH if unused. Where a SMILES comes first, the peptide text is derived from it. Bridges are numbered along the chain shown (N, C = ends). [ ]: non-standard residue; d: D form. The star is where a group is joined. hPhe(3-Cl-4-CF3) = N[C@@H](CCc1ccc(C(F)(F)F)c(Cl)c1)C(=O)O; X1 = CCCCN([C@@H](Cc1ccc(C)cc1)C(=O)[*:2])[*:1]; NMeGly(cPent) = CN[C@H](C(=O)O)C1CCCC1; NMeD = CN[C@@H](CC(=O)O)C(=O)O; NMeL = CN[C@@H](CC(C)C)C(=O)O; Morpholide = C1CN(*)CCO1; NMeA = CN[C@@H](C)C(=O)O; Ac5c = NC1(C(=O)O)CCCC1; Aze = O=C(O)[C@@H]1CCN1; Sar = CNCC(=O)O

Columns and labels:
[1] = target: GDP-bound NRAS wild-type protein (Homo sapiens, UniProt P01111); test: Binding to NRAS by surface plasmon resonance (SPR), KD and KD ratio to KRAS; settings: ratio of KD for GDP-bound NRAS wild-type protein to KD for KRAS
Procedure: (§1) Surface plasmon resonance was used to analyze the binding affinity of compounds for KRAS, NRAS, and HRAS. The apparatus used was Biacore 8K, 8K+, or T200 (GE Healthcare), and the running buffer used was HBS (10 mM HEPES-NaOH, 150 mM NaCl, pH 7.4) containing 1 mM DTT, 10 mM MgCl2, 0.01% Tween 20, 10 µM GDP, and 4% DMSO.
(§2) Biotinylated Avi-tag fusion KRAS, NRAS, and HRAS proteins were expressed in E. coli BL21 (DE3) strains, and after cells were homogenized, they were purified using Streptavidin Mutein Matrix and Superdex 75. After purification, GDP-loaded KRAS, NRAS, and HRAS proteins were immobilized on the surface of Sensor Chip CAP (Cytiva) coated with Biotin CAPture Reagent in an immobilization amount of about 100 to 300 RU. Binding of each compound was evaluated by the Single Cycle Kinetics method, and a running buffer or a compound solution was added to the RAS protein non-immobilized surface and the immobilized surface to obtain a binding response. The flow rate was set to 100 µL/min, and in the compound-adding cycle, compound solutions having different concentrations were intermittently added for 75 seconds each, starting from a low concentration. […] In the blank cycle, a running buffer was intermittently added and not the compound solution. The Biotin CAPture Reagent and RAS proteins were immobilized for each cycle, and at the end of each cycle, the sensor chip was regenerated by the regeneration solution appended to the Biotin CAPture Kit (Cytiva). Measurement was carried out at 30°C.
(§3) The resulting sensorgram was subjected to curve fitting based on a 1:1 binding model on Biacore Insight Evaluation Software or T200 Evaluation Software, and thereby the dissociation constant KD of each compound with respect to KRAS, NRAS, and HRAS was determined. […] Blank indicates a compound from which the KD value with respect to NRAS or HRAS was not obtained.

HRAS wild-type protein = HRAS wild-type protein (Homo sapiens, UniProt P01112); test: Binding to HRAS by surface plasmon resonance (SPR), KD and KD ratio to KRAS; settings: ratio of KD for HRAS wild-type protein to KD for KRAS
Procedure: as §1, §2, §3

Chain of HRAS wild-type protein (P01112 whole entry): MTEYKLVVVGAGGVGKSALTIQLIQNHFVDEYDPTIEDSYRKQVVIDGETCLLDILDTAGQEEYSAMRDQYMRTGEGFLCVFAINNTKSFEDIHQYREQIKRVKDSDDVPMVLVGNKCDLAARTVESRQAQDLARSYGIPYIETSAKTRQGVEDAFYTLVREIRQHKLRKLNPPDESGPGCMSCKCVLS
Chain of GDP-bound NRAS wild-type protein (P01111 whole entry): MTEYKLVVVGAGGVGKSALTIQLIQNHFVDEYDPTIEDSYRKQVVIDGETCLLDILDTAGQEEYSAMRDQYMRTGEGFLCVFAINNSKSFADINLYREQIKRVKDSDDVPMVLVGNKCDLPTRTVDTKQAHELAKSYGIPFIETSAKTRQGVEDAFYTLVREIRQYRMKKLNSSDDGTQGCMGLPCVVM

## CCCCN1C(=O)[C@@H]2CCN2C(=O)[C@H](C)N(C)C(=O)[C@H]([C@@H](C)CC)NC(=O)[C@H](CC(C)C)N(C)C(=O)C[C@@H](C(=O)N2CCOCC2)N(C)C(=O)[C@H](C2CCCC2)N(C)C(=O)C2(CCCC2)NC(=O)[C@@H]2CCCN2C(=O)[C@H](CCc2ccc(C(F)(F)F)c(Cl)c2)NC(=O)CN(C)C(=O)[C@@H]1Cc1ccc(C)cc1 [PP0055] ([NMeL]I[NMeA][Aze][X1][Sar][hPhe(3-Cl-4-CF3)]P[Ac5c][NMeGly(cPent)][NMeD]-Morpholide; lactam N-11)
[1]
  NRAS /KRAS: C (A compound having a KD ratio of 0.1 or more and less than 3 is denoted as C)
HRAS wild-type protein
  HRAS /KRAS: C (A compound having a KD ratio of 0.1 or more and less than 3 is denoted as C)

## CC[C@H](C)[C@@H]1NC(=O)[C@H](CC(C)C)N(C)C(=O)C[C@@H](C(=O)N2CCOCC2)N(C)C(=O)[C@H](C2CCCC2)N(C)C(=O)C2(CCC2)NC(=O)[C@@H]2[C@@H](O)CCN2C(=O)[C@H](CCc2cc(F)c(C(F)(F)F)c(F)c2)NC(=O)CN(C)C(=O)[C@H](Cc2ccc(C(F)(F)F)cc2)N2CCCCC[C@@H](C2=O)N(C)C(=O)CN(C)C1=O [PP0872]
[1]
  NRAS /KRAS: A (a compound having 10 or more and less than 20 is denoted as A)
HRAS wild-type protein
  HRAS /KRAS: A (a compound having 10 or more and less than 20 is denoted as A)
